# Measurements from the supplement of paper PMC8728848.
# This is one part of the list.
# B1: Als3-41 (Candida albicans) (protein)
# chain: KTITGVFNSFNSLTWSNAATYNYKGPGTPTWNAVLGWSLDGTSASPGDTFTLNMPCVFKFTTSQTSVDLTAHGVKYATCQFQAGEEFMTFSTLTCTVSNTLTPSIKALGTVTLPLAFNVGGTGSSVDLEDSKCFTAGTNTVTFNDGGKKISINVDFERSNVDPKGYLTDSRVIPSLNKVSTLFVAPQCANGYTSGTMGFANTYGDVQIDCSNIHVGITKGLNDWNYPVSSESFSYTKTCSSNGIFITYKNVPAGYRPFVDAYISATDVNSYTLSYANEYTCAGGYWQRAPFTLRWTGYRNSDAGSNGIVIVATTRTVTDSTTAVTTLPFDPNRDKTKTIEILKPIPTTTITTSYVGVTTSYLTKTAPIGETATVIVD
# Columns and labels:
# Test in all cases: glycan array binding signal (z-score within array); higher = stronger binding
# Conditions in all cases: glycan notation: IUPAC condensed, linker removed
# [1] = molecular target: Fuc(a1-2)[GalNAc(a1-3)]Gal(b1-3)GlcNAc(b1-3)GalNAc
# Summary of the method: (§1)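 The binding signal is a Z-score computed within each array and averaged over linkers. Arrays of the same protein sequence at different concentrations or buffers were also averaged together. Data originate from 3228 arrays in the Consortium for Functional Glycomics database, kept only where the protein sequence was available.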
# [2] = molecular target: Fuc(a1-2)[GalNAc(a1-3)]Gal(b1-3)GlcNAc(b1-6)GalNAc
# Summary of the method: as §1
# [3] = molecular target: Fuc(a1-2)[GalNAc(a1-3)]Gal(b1-4)Glc
# Summary of the method: as §1
# [4] = molecular target: Fuc(a1-2)[GalNAc(a1-3)]Gal(b1-4)GlcNAc
# Summary of the method: as §1
# [5] = molecular target: Fuc(a1-2)[GalNAc(a1-3)]Gal(b1-4)GlcNAc(b1-2)Man
# Summary of the method: as §1
# [6] = molecular target: Fuc(a1-2)[GalNAc(a1-3)]Gal(b1-4)GlcNAc(b1-2)Man(a1-3)[Fuc(a1-2)[GalNAc(a1-3)]Gal(b1-4)GlcNAc(b1-2)Man(a1-6)]Man(b1-4)GlcNAc(b1-4)GlcNAc
# Summary of the method: as §1
# [7] = molecular target: Fuc(a1-2)[GalNAc(a1-3)]Gal(b1-4)GlcNAc(b1-2)Man(a1-3)[Fuc(a1-2)[GalNAc(a1-3)]Gal(b1-4)GlcNAc(b1-2)Man(a1-6)]Man(b1-4)GlcNAc(b1-4)[Fuc(a1-6)]GlcNAc
# Summary of the method: as §1
# [8] = molecular target: Fuc(a1-2)[GalNAc(a1-3)]Gal(b1-4)GlcNAc(b1-3)Gal(b1-4)GlcNAc
# Summary of the method: as §1
# [9] = molecular target: Fuc(a1-2)[GalNAc(a1-3)]Gal(b1-4)GlcNAc(b1-3)Gal(b1-4)GlcNAc(b1-3)Gal(b1-4)GlcNAc
# Summary of the method: as §1
# [10] = molecular target: Fuc(a1-2)[GalNAc(a1-3)]Gal(b1-4)GlcNAc(b1-3)GalNAc
# Summary of the method: as §1
# [11] = molecular target: Fuc(a1-2)[GalNAc(a1-3)]Gal(b1-4)GlcNAc(b1-3)[Fuc(a1-2)[GalNAc(a1-3)]Gal(b1-4)GlcNAc(b1-6)]GalNAc
# Summary of the method: as §1
# [12] = molecular target: Fuc(a1-2)[GalNAc(a1-3)]Gal(b1-4)GlcNAc(b1-6)GalNAc
# Summary of the method: as §1
# [13] = molecular target: Fuc(a1-2)[GalNAc(a1-3)]Gal(b1-4)[Fuc(a1-3)]GlcNAc
# Summary of the method: as §1
# [14] = molecular target: Fuc(a1-2)[GalNAc(a1-3)]Gal(b1-4)[Fuc(a1-3)]GlcNAc(b1-3)GalNAc
# Summary of the method: as §1
# [15] = molecular target: Fuc(a1-2)[GalNAc(a1-4)]Gal(b1-4)GlcNAc
# Summary of the method: as §1
# [16] = molecular target: Fuc(a1-2)[GalNAc(b1-3)]Gal
# Summary of the method: as §1
# Fuc(a1-3)GlcNAc = molecular target: Fuc(a1-3)GlcNAc
# Summary of the method: as §1
# [17] = molecular target: Fuc(a1-3)[Gal(b1-4)]Glc6S
# Summary of the method: as §1
# [18] = molecular target: Fuc(a1-3)[Gal(b1-4)]GlcNAc
# Summary of the method: as §1
# [19] = molecular target: Fuc(a1-3)[Gal(b1-4)]GlcNAc(b1-2)Man
# Summary of the method: as §1
# [20] = molecular target: Fuc(a1-3)[Gal(b1-4)]GlcNAc(b1-2)Man(a1-3)[Fuc(a1-3)[Gal(b1-4)]GlcNAc(b1-2)Man(a1-6)]Man(b1-4)GlcNAc(b1-4)GlcNAc
# Summary of the method: as §1
# [21] = molecular target: Fuc(a1-3)[Gal(b1-4)]GlcNAc(b1-2)Man(a1-3)[Fuc(a1-3)[Gal(b1-4)]GlcNAc(b1-2)Man(a1-6)]Man(b1-4)GlcNAc(b1-4)[Fuc(a1-6)]GlcNAc
# Summary of the method: as §1
# [22] = molecular target: Fuc(a1-3)[Gal(b1-4)]GlcNAc(b1-3)Gal(b1-3)[Fuc(a1-4)]GlcNAc
# Summary of the method: as §1
# [23] = molecular target: Fuc(a1-3)[Gal(b1-4)]GlcNAc(b1-3)Gal(b1-4)[Fuc(a1-3)]GlcNAc
# Summary of the method: as §1
# [24] = molecular target: Fuc(a1-3)[Gal(b1-4)]GlcNAc(b1-3)Gal(b1-4)[Fuc(a1-3)]GlcNAc(b1-3)Gal(b1-4)[Fuc(a1-3)]GlcNAc
# Summary of the method: as §1
# [25] = molecular target: Fuc(a1-3)[Gal(b1-4)]GlcNAc(b1-3)GalNAc
# Summary of the method: as §1
# [26] = molecular target: Fuc(a1-3)[Gal(b1-4)]GlcNAc(b1-6)GalNAc
# Summary of the method: as §1
# [27] = molecular target: Fuc(a1-3)[Gal(b1-4)]GlcNAc(b1-6)[Gal(b1-3)GlcNAc(b1-3)]Gal(b1-4)Glc
# Summary of the method: as §1
# [28] = molecular target: Fuc(a1-3)[Gal(b1-4)]GlcNAc6S
# Summary of the method: as §1
# [29] = molecular target: Fuc(a1-3)[Gal3S(b1-4)]Glc
# Summary of the method: as §1
# [30] = molecular target: Fuc(a1-3)[Gal3S(b1-4)]GlcNAc
# Summary of the method: as §1
# [31] = molecular target: Fuc(a1-3)[Gal3S(b1-4)]GlcNAc6S
# Summary of the method: as §1
# [32] = molecular target: Fuc(a1-3)[GalNAc(b1-4)]GlcNAc
# Summary of the method: as §1
# [33] = molecular target: Fuc(a1-3)[GalNAc(b1-4)]GlcNAc6S
# Summary of the method: as §1
# Fuc(a1-4)GlcNAc = molecular target: Fuc(a1-4)GlcNAc
# Summary of the method: as §1
# Fuc(b1-3)GlcNAc = molecular target: Fuc(b1-3)GlcNAc
# Summary of the method: as §1
# Gal(a1-2)Gal = molecular target: Gal(a1-2)Gal
# Summary of the method: as §1
binder,measurement,setting,value
B1,glycan array binding signal (z-score),[1],0.208
same,glycan array binding signal (z-score),[2],-0.242
same,glycan array binding signal (z-score),[3],-0.257
same,glycan array binding signal (z-score),[4],-0.323
same,glycan array binding signal (z-score),[5],-0.243
same,glycan array binding signal (z-score),[6],-0.319
same,glycan array binding signal (z-score),[7],-0.001
same,glycan array binding signal (z-score),[8],-0.321
same,glycan array binding signal (z-score),[9],1.63
same,glycan array binding signal (z-score),[10],-0.251
same,glycan array binding signal (z-score),[11],-0.047
same,glycan array binding signal (z-score),[12],-0.001
same,glycan array binding signal (z-score),[13],0.032
same,glycan array binding signal (z-score),[14],0.369
same,glycan array binding signal (z-score),[15],-0.181
same,glycan array binding signal (z-score),[16],-0.159
same,glycan array binding signal (z-score),Fuc(a1-3)GlcNAc,-0.123
same,glycan array binding signal (z-score),[17],0.208
same,glycan array binding signal (z-score),[18],-0.198
same,glycan array binding signal (z-score),[19],-0.251
same,glycan array binding signal (z-score),[20],1.07
same,glycan array binding signal (z-score),[21],0.268
same,glycan array binding signal (z-score),[22],-0.315
same,glycan array binding signal (z-score),[23],-0.121
same,glycan array binding signal (z-score),[24],-0.317
same,glycan array binding signal (z-score),[25],0.174
same,glycan array binding signal (z-score),[26],0.223
same,glycan array binding signal (z-score),[27],-0.342
same,glycan array binding signal (z-score),[28],0.9
same,glycan array binding signal (z-score),[29],0.118
same,glycan array binding signal (z-score),[30],-0.125
same,glycan array binding signal (z-score),[31],1.6
same,glycan array binding signal (z-score),[32],-0.075
same,glycan array binding signal (z-score),[33],0.113
same,glycan array binding signal (z-score),Fuc(a1-4)GlcNAc,7.63
same,glycan array binding signal (z-score),Fuc(b1-3)GlcNAc,-0.1
same,glycan array binding signal (z-score),Gal(a1-2)Gal,-0.006
